Test results from the supplement of paper PMC4967469.
pIC50: −log10 of the molar value. Lines with a small IC50 respond at low doses; fits outside the tested doses are given as limits. AUC sums up the same curve from the lowest dose to the 256-fold higher top dose; it is 1 without any effect and falls as sensitivity rises. For part of these data: An inferred top dose comes from the curve model; the source does not state it. For part of these data: Where an entry number is given, a second screen of the drug exists; the two often differ.

How the values were obtained:
Experiment in all cases: Viability of human cancer cell lines after 72 h of drug (GDSC screen)
PD-0332991 = compound: CC(=O)c1c(C)c2cnc(Nc3ccc(N4CCNCC4)cn3)nc2n(C2CCCC2)c1=O [PD-0332991]
Protocol: (§1)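 Human cancer cell lines in 384-well plates, medium with 10% serum, drug for 72 h over a 256-fold dose range (nine 2-fold or five 4-fold steps up to the top dose). Adherent lines were fixed and stained with the nucleic acid dye Syto60, suspension lines read with resazurin; signal relative to control wells, capped at 0 and 100%. One two-parameter sigmoid per drug and line, fitted in a mixed model over all curves with the slope shared within a line.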

ZM-447439 = compound: COc1cc2c(Nc3ccc(NC(=O)c4ccccc4)cc3)ncnc2cc1OCCCN1CCOCC1 [ZM-447439]; conditions: top dose inferred
Protocol: as §1

AZD6244 = compound: Cn1cnc2c(F)c(Nc3ccc(Br)cc3Cl)c(C(=O)NOCCO)cc21 [AZD6244]; conditions: screen: GDSC drug entry 1062
Protocol: as §1

Cell Line	AUC (PD-0332991)	pIC50 (PD-0332991)	AUC (ZM-447439)	pIC50 (ZM-447439)	AUC (AZD6244)	pIC50 (AZD6244)
COLO-679 (melanoma, adherent, top dose 4 µM)	0.904	< 5.40	0.947	< 5.40	0.544	6.48
COLO-680N (oesophagus, adherent, top dose 4 µM)	0.881	< 5.40	0.925	< 5.40	0.843	5.44
COLO-684 (endometrium, suspension, top dose 4 µM)	0.981	< 5.40	0.968	< 5.40	0.984	< 5.40
COLO-783 (melanoma, adherent, top dose 4 µM)	0.901	< 5.40	0.991	< 5.40	0.99	< 5.40
COLO-800 (melanoma, adherent, top dose 4 µM)	0.658	6.17	0.769	5.83	0.983	< 5.40
COLO-824 (breast, adherent, top dose 4 µM)	0.988	< 5.40	0.86	5.46	0.982	< 5.40
COR-L23 (large cell lung carcinoma, adherent, top dose 4 µM)	0.711	6.01	0.862	5.49	0.842	5.57
COR-L88 (small cell lung carcinoma, adherent, top dose 4 µM)	0.986	< 5.40	0.971	< 5.40	0.974	< 5.40
COR-L95 (small cell lung carcinoma, adherent, top dose 4 µM)	0.987	< 5.40	0.987	< 5.40	0.987	< 5.40
COR-L279 (small cell lung carcinoma, suspension, top dose 4 µM)	0.991	< 5.40	0.951	< 5.40	0.99	< 5.40
COR-L321 (lung, suspension, top dose 4 µM)	0.987	< 5.40	0.954	< 5.40	0.982	< 5.40
CP50-MEL-B (melanoma, adherent, top dose 4 µM)	0.935	< 5.40	0.985	< 5.40	0.405	6.86
CP66-MEL (melanoma, adherent, top dose 4 µM)	0.897	< 5.40	0.977	< 5.40	0.913	< 5.40
CPC-N (small cell lung carcinoma, suspension, top dose 4 µM)	0.908	< 5.40	0.899	< 5.40	0.935	< 5.40
CRO-AP2 (B-cell lymphoma, suspension, top dose 4 µM)	0.672	6.15	0.649	6.22	0.954	< 5.40
CS1 (bone, adherent, top dose 4 µM)	0.73	5.91	0.935	< 5.40	0.945	< 5.40
CTB-1 (B-cell lymphoma, suspension, top dose 4 µM)	0.65	6.12	0.818	5.47	0.979	< 5.40
CTV-1 (acute myeloid leukaemia, suspension, top dose 4 µM)	0.825	5.74	0.801	5.82	0.98	< 5.40
CW-2 (large intestine, adherent, top dose 4 µM)	0.962	< 5.40	0.966	< 5.40	0.966	< 5.40
Ca9-22 (head and neck, adherent, top dose 4 µM)	0.852	5.56	0.833	5.63	0.784	5.80
Ca-Ski (cervix, adherent, top dose 4 µM)	0.927	< 5.40	0.89	< 5.40	0.98	< 5.40
CaR-1 (large intestine, adherent, top dose 4 µM)	0.781	5.58	0.872	< 5.40	0.867	< 5.40

Cell Line	AUC (PD-0332991)	pIC50 (PD-0332991)	AUC (ZM-447439)	pIC50 (ZM-447439)	AUC (AZD6244)	pIC50 (AZD6244)
Calu-3 (lung adenocarcinoma, adherent, top dose 4 µM)	0.979	< 5.40	0.943	< 5.40	0.98	< 5.40
Calu-6 (lung adenocarcinoma, adherent, top dose 4 µM)	0.927	< 5.40	0.851	5.42	0.828	5.52
Caov-4 (ovary, adherent, top dose 4 µM)	0.978	< 5.40	0.98	< 5.40	0.98	< 5.40
Capan-2 (pancreas, adherent, top dose 4 µM)	0.898	< 5.40	0.956	< 5.40	0.808	5.58
ChaGo-K-1 (non-small cell lung carcinoma, adherent, top dose 4 µM)	0.895	< 5.40	0.849	5.43	0.96	< 5.40
D-247MG (glioma, adherent, top dose 4 µM)	0.752	5.75	0.917	< 5.40	0.972	< 5.40
D-263MG (glioma, adherent, top dose 4 µM)	0.581	6.36	0.824	5.51	0.579	6.37
D-283MED (medulloblastoma, adherent, top dose 4 µM)	0.751	5.92	0.895	< 5.40	0.955	< 5.40
D-392MG (glioma, adherent, top dose 4 µM)	0.85	< 5.40	0.933	< 5.40	0.913	< 5.40
D-423MG (glioma, adherent, top dose 4 µM)	0.76	5.77	0.856	< 5.40	0.882	< 5.40
D-502MG (glioma, adherent, top dose 4 µM)	0.752	5.69	0.844	< 5.40	0.81	5.42
D-542MG (glioma, adherent, top dose 4 µM)	0.981	< 5.40	0.984	< 5.40	0.984	< 5.40
D-566MG (glioma, adherent, top dose 4 µM)	0.864	5.47	0.782	5.78	0.921	< 5.40
DAN-G (pancreas, adherent, top dose 4 µM)	0.928	< 5.40	0.992	< 5.40	0.93	< 5.40
DB (B-cell lymphoma, suspension, top dose 4 µM)	0.664	6.12	0.849	5.44	0.873	< 5.40
DBTRG-05MG (glioma, adherent, top dose 4 µM)	0.727	5.90	0.833	5.49	0.735	5.88
DEL (lymphoid neoplasm, suspension, top dose 4 µM)	0.994	< 5.40	0.994	< 5.40	0.994	< 5.40
DG-75 (Burkitt lymphoma, suspension, top dose 4 µM)	0.627	6.25	0.869	5.42	0.931	< 5.40
DIFI (large intestine, adherent, top dose 4 µM)	0.882	< 5.40	0.899	< 5.40	0.986	< 5.40
DJM-1 (skin, adherent, top dose 4 µM)	0.901	< 5.40	0.949	< 5.40	0.956	< 5.40
DK-MG (glioma, adherent, top dose 4 µM)	0.745	5.74	0.904	< 5.40	0.818	5.41
DMS-79 (small cell lung carcinoma, suspension, top dose 4 µM)	0.987	< 5.40	0.986	< 5.40	0.981	< 5.40

Cell Line	AUC (PD-0332991)	pIC50 (PD-0332991)	AUC (ZM-447439)	pIC50 (ZM-447439)	AUC (AZD6244)	pIC50 (AZD6244)
DMS-114 (small cell lung carcinoma, adherent, top dose 4 µM)	0.957	< 5.40	0.985	< 5.40	0.985	< 5.40
DMS-273 (small cell lung carcinoma, adherent, top dose 4 µM)	0.964	< 5.40	0.846	5.50	0.947	< 5.40
DND-41 (T-cell leukaemia, suspension, top dose 4 µM)	0.832	5.67	0.903	< 5.40	0.985	< 5.40
DOHH-2 (B-cell lymphoma, suspension, top dose 4 µM)	0.874	5.43	0.78	5.79	0.964	< 5.40
DOK (head and neck, adherent, top dose 4 µM)	0.827	< 5.40	0.867	< 5.40	0.835	< 5.40
DOV13 (ovary, adherent, top dose 4 µM)	0.597	6.32	0.864	< 5.40	0.81	5.60
DSH1 (bladder, adherent, top dose 4 µM)	0.826	5.64	0.942	< 5.40	0.985	< 5.40
DU-145 (prostate, adherent, top dose 2 µM)	0.883	< 5.70	0.984	< 5.70	0.984	< 5.70
Daudi (Burkitt lymphoma, suspension, top dose 4 µM)	0.989	< 5.40	0.906	< 5.40	0.989	< 5.40
Detroit562 (head and neck, adherent, top dose 4 µM)	0.906	< 5.40	0.801	5.73	0.973	< 5.40
DoTc2-4510 (cervix, adherent, top dose 4 µM)	0.986	< 5.40	0.986	< 5.40	0.964	< 5.40
EB2 (Burkitt lymphoma, suspension, top dose 4 µM)	0.99	< 5.40	0.99	< 5.40	0.99	< 5.40
EB-3 (Burkitt lymphoma, suspension, top dose 4 µM)	0.984	< 5.40	0.984	< 5.40	0.983	< 5.40
EBC-1 (lung squamous cell carcinoma, adherent, top dose 4 µM)	0.675	6.08	0.902	< 5.40	0.655	6.15
EC-GI-10 (oesophagus, adherent, top dose 4 µM)	0.842	5.56	0.901	< 5.40	0.988	< 5.40
ECC10 (stomach, suspension, top dose 4 µM)	0.947	< 5.40	0.819	5.62	0.962	< 5.40
EFO-21 (ovary, adherent, top dose 4 µM)	0.967	< 5.40	0.809	5.48	0.82	5.42
EFO-27 (ovary, adherent, top dose 4 µM)	0.756	5.77	0.915	< 5.40	0.761	5.75
EGI-1 (biliary tract, adherent, top dose 2 µM)	0.812	5.82	0.871	< 5.70	0.813	5.82
EHEB (lymphoid neoplasm, suspension, top dose 4 µM)	0.873	< 5.40	0.899	< 5.40	0.95	< 5.40
